The values below come from patent US12043670B2, “Anti-BCMA antibody-drug conjugates and methods of use” (Eisai R&D Management Co., Ltd., priority 2020, dated 2024).

B1: AB200-R1a-Fab_VH2 (antibody)
heavy: QVQLVQSGAEVKKPGSSVKVSCKASGGTFSNYWMHWVRQAPGQGLEWMGATYRGHSDTYYNQKFQGRVTITADKSTSTAYMELSSLRSEDTAVYYCARGAVFHGYDVLDNWGQGTLVTVSSASTKGPSVFPLAPSSKSTSGGTAALGCLVKDYFPEPVTVSWNSGALTSGVHTFPAVLQSSGLYSLSSVVTVPSSSLGTQTYICNVNHKPSNTKVDKKVEPKSC
light: DIQMTQSPSSLSASVGDRVTITCSATQDISNYLNWYQQKPGKAPKLLIYFTSNLQSGVPSRFSGSGSGTDFTLTISSLQPEDFATYYCQQYRKLPWTFGQGTKLEIKRTVAAPSVFIFPPSDEQLKSGTASVVCLLNNFYPREAKVQWKVDNALQSGNSQESVTEQDSKDSTYSLSSTLTLSKADYEKHKVYACEVTHQGLSSPVTKSFNRGEC
B2: AB200-R1a-Fab_VH45 (antibody)
heavy: QVQLVQSGAEVKKPGSSVKVSCKASGGTFSNYWMHWVRQAPGQGLEWMGATYRGHSDTYYNNKFKGRVTITADKSTSTAYMELSSLRSEDTAVYYCARGAIYHGYDVLEDWGQGTLVTVSSASTKGPSVFPLAPSSKSTSGGTAALGCLVKDYFPEPVTVSWNSGALTSGVHTFPAVLQSSGLYSLSSVVTVPSSSLGTQTYICNVNHKPSNTKVDKKVEPKSC
light: DIQMTQSPSSLSASVGDRVTITCSATQDISNYLNWYQQKPGKAPKLLIYFTSNLQSGVPSRFSGSGSGTDFTLTISSLQPEDFATYYCQQYRKLPWTFGQGTKLEIKRTVAAPSVFIFPPSDEQLKSGTASVVCLLNNFYPREAKVQWKVDNALQSGNSQESVTEQDSKDSTYSLSSTLTLSKADYEKHKVYACEVTHQGLSSPVTKSFNRGEC
B3: AB200-R1a-Fab_VH46 (antibody)
heavy: QVQLVQSGAEVKKPGSSVKVSCKASGGTFSNYWMHWVRQAPGQGLEWMGATYRGHSDTNYNQKYKGRVTITADKSTSTAYMELSSLRSEDTAVYYCARGAIYNGYDVLDNWGQGTLVTVSSASTKGPSVFPLAPSSKSTSGGTAALGCLVKDYFPEPVTVSWNSGALTSGVHTFPAVLQSSGLYSLSSVVTVPSSSLGTQTYICNVNHKPSNTKVDKKVEPKSC
light: DIQMTQSPSSLSASVGDRVTITCSATQDISNYLNWYQQKPGKAPKLLIYFTSNLQSGVPSRFSGSGSGTDFTLTISSLQPEDFATYYCQQYRKLPWTFGQGTKLEIKRTVAAPSVFIFPPSDEQLKSGTASVVCLLNNFYPREAKVQWKVDNALQSGNSQESVTEQDSKDSTYSLSSTLTLSKADYEKHKVYACEVTHQGLSSPVTKSFNRGEC
B4: AB200-R1a-Fab_VH44 (antibody)
heavy: QVQLVQSGAEVKKPGSSVKVSCKASGGTFSNYWMHWVRQAPGQGLEWMGGTYRGHSDTYYNQRFKGRVTITADKSTSTAYMELSSLRSEDTAVYYCARGAIYHGYDILDNWGQGTLVTVSSASTKGPSVFPLAPSSKSTSGGTAALGCLVKDYFPEPVTVSWNSGALTSGVHTFPAVLQSSGLYSLSSVVTVPSSSLGTQTYICNVNHKPSNTKVDKKVEPKSC
light: DIQMTQSPSSLSASVGDRVTITCSATQDISNYLNWYQQKPGKAPKLLIYFTSNLQSGVPSRFSGSGSGTDFTLTISSLQPEDFATYYCQQYRKLPWTFGQGTKLEIKRTVAAPSVFIFPPSDEQLKSGTASVVCLLNNFYPREAKVQWKVDNALQSGNSQESVTEQDSKDSTYSLSSTLTLSKADYEKHKVYACEVTHQGLSSPVTKSFNRGEC
B5: AB200-R1a-Fab_VH48 (antibody)
heavy: QVQLVQSGAEVKKPGSSVKVSCKASGGTFSDYWMHWVRQAPGQGLEWMGATYRGHSDTYYNQRFKGRVTITADKSTSTAYMELSSLRSEDTAVYYCARGAIYHGYDVMDNWGQGTLVTVSSASTKGPSVFPLAPSSKSTSGGTAALGCLVKDYFPEPVTVSWNSGALTSGVHTFPAVLQSSGLYSLSSVVTVPSSSLGTQTYICNVNHKPSNTKVDKKVEPKSC
light: DIQMTQSPSSLSASVGDRVTITCSATQDISNYLNWYQQKPGKAPKLLIYFTSNLQSGVPSRFSGSGSGTDFTLTISSLQPEDFATYYCQQYRKLPWTFGQGTKLEIKRTVAAPSVFIFPPSDEQLKSGTASVVCLLNNFYPREAKVQWKVDNALQSGNSQESVTEQDSKDSTYSLSSTLTLSKADYEKHKVYACEVTHQGLSSPVTKSFNRGEC

The data set in a line: ThermoFluor thermostability (Tm). The data set is classed as physicochemical. Conditions: Heavy chain screening Round 1; Fab, paired with light chain AB200_VK6. In general terms: In DSF a fluorescence change marks the thermal transition of the protein.
As for B1, the Tm was 80.784 °C.
For B2 the value was 81.742 °C; for B3, 79.871 °C; for B4, 79.892 °C.
For B5 the value was 80.234 °C.
